In PubChem BioAssay AID2147 (National Center for Advancing Translational Sciences (NCATS), 2009):
The whole screen tested about 230,000 compounds, of which about 3,600 (1.6%) were called active. Inconclusive means that the source gave no clear call. Such entries were picked first, then a sample of the others. The call rests on the fitted dose curve; in most records, active means well fitted inhibition curve with a large enough effect (not every such curve was filed as active); inconclusive means small, poorly fitted or top-dose-only effect, or another doubt; inactive means no such curve, though single readings can be large or run the other way. Potencies of inconclusive entries are doubtful fits and often do not repeat.

The molecules below were run against Lysine-specific demethylase 4E (Homo sapiens) (UniProt B2RXH2) (assay: qHTS Assay for Inhibitors of Human Jumonji Domain Containing 2E (JMJD2E)). Settings: JMJD2E catalytic domain, FDH-coupled NADH fluorescence (FDH is formaldehyde dehydrogenase); series mostly up to 57.1 µM.
Further: nearly all actives have a fitted effect of over 50% in size.
Potency means the concentration at half of the fitted maximal effect; tags describe the fitted curve by direction and shape.

Chain of UniProt B2RXH2 (B2RXH2 whole entry, looked up, the tested form may be a part): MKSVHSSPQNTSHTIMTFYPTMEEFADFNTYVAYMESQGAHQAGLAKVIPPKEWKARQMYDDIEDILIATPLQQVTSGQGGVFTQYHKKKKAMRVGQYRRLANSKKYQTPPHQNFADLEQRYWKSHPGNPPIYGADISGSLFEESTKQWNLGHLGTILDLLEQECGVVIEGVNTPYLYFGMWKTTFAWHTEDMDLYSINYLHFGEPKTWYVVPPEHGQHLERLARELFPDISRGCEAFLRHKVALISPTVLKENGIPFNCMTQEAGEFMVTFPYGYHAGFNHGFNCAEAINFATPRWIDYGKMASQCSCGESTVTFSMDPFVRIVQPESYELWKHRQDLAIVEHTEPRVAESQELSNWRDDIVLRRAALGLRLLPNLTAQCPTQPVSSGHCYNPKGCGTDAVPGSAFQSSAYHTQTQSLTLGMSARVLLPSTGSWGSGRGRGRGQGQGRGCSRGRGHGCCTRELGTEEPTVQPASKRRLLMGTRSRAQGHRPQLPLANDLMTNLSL

Row | SMILES | Potency
1 | c1ccc2nc(N3CCN(Cc4ccc5c(c4)OCO5)CC3)cnc2c1 | inconclusive: 28.2 µM [inhibitor, single point]
2 | N#C/C(=C/c1ccc2c(c1)OCO2)C(=O)NCCc1c[nH]c2ccccc12 | inactive
3 | COc1cccc(C(C2=C(O)CC(C)(C)CC2=O)C2C(=O)CC(C)(C)CC2=O)c1 (centres undefined) | inactive
4 | CN1CCN(CCCNC(=O)c2ccc(/C=C3\Sc4ccccc4N(Cc4ccc(F)cc4)C3=O)cc2)CC1 | inconclusive: 25.1 µM [inhibitor, single point]
5 | O=C(CSc1nnc(CNc2ccccc2)o1)c1ccc2c(c1)OCCO2 | inactive
6 | COc1ccc(/C=N/n2cnc3c([nH]c4ccccc43)c2=O)cc1COc1ccccn1 | inconclusive: 39.8 µM [inhibitor, single point]
7 | COc1ccc(C2Nc3ccccc3C(=O)N2O)cc1OC (centres undefined) | inconclusive: 35.5 µM [inhibitor, single point]
8 | Oc1ccc(/C=N/n2cc(-c3ccccc3)[nH]c2=S)cc1 | inconclusive: 28.2 µM [inhibitor, partial curve]
9 | CC(=O)Nc1ccc2c(COC(=O)CC3Sc4ccccc4NC3=O)cc(=O)oc2c1 (centres undefined) | inconclusive: 28.2 µM [inhibitor, partial curve]
10 | Cc1ccc2nc(CCc3nc4ccc(C)cc4o3)oc2c1 | inconclusive: 35.5 µM [inhibitor, single point]
11 | C/C(=N\NC(=O)c1ccncc1)c1cc2ccccc2oc1=O | active: 14.1 µM
12 | O=C(CSc1cccc2cccnc12)N1CCCC1 | inconclusive: 31.6 µM [inhibitor, partial curve]
13 | CCNC(=O)CC1C(=O)N(c2ccc(OC)cc2)C(=S)N1CCc1ccncc1 (centres undefined) | inactive
14 | CC(C)[C@H](CO)N(Cc1cccc(F)c1)c1nc(Nc2cccc(Cl)c2)c2ncn(C(C)C)c2n1 | inconclusive: 28.2 µM [inhibitor, single point]
15 | CCOC(=O)C1=C(C)OC(N)=C(C#N)C1c1cc2ccccc2nc1N1CCCCC1 (centres undefined) | inconclusive: 22.4 µM [inhibitor, partial curve]
16 | O=C(COC(=O)c1ccncc1)c1ccc(Br)cc1 | inconclusive: 31.6 µM [inhibitor, single point]
17 | O=C(O)c1cccc(NC(=S)N/N=C/c2cccnc2)c1 | inconclusive: 20 µM [inhibitor, single point]
18 | COc1ccc(-n2c(-c3ccc(Br)cc3)c[n+]3c2SC(C)C3)cc1 (centres undefined) | inactive
19 | Clc1ccc(CO/N=C/c2c(-c3ccccc3)nc3n2CCS3)c(Cl)c1 | inconclusive: 35.5 µM [inhibitor, single point]
